For assay [1], the system named is RAW-Dual. Kind of assay: NF-kB SEAP reporter activity, fold change vs agonist alone; cytotoxicity flag (confluency mask): not cytotoxic; higher = enhanced NF-kB activity. The procedure, abridged: (§1)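 RAW-Dual macrophages were seeded in DMEM at 50,000 cells/well in 384-well plates, given 50 nL of library stock by pin tool, and given a PRR agonist 1 h later. Plates were held at 37 °C, 5% CO2 for 20 hours, after which supernatant was read for IRF by QuantiLuc luminescence and for NF-κB by QuantiBlue absorbance at 620 nm. Reporter activity is expressed as fold change over wells that received agonist alone. A well was called cytotoxic when IncuCyte confluency fell below 70% of agonist controls in both mask sets.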

Assay [2] has as its system RAW-Dual. Put plainly: NF-kB SEAP reporter activity, fold change vs agonist alone; cytotoxicity flag (confluency mask): cytotoxic (confluency <70% of control); higher = enhanced NF-kB activity. An outline of the steps:
as §1

Assay [3] deals with RAW-Dual. Put plainly: NF-kB SEAP reporter activity, fold change vs agonist alone; higher = enhanced NF-kB activity. The settings on record: library stock concentration (final ~1000-fold dilution): 10 mM. An outline of the steps:
as §1

Setting [4] is: agonist: ODN 1826 (TLR9) 0.5 ug/mL.
[5] abbreviates: agonist: Pam2CSK4 (TLR2/6) 0.1 ug/mL.
Where [6] appears, read: agonist: Pam3CSK4 (TLR2/1) 0.1 ug/mL.
[7] abbreviates: cytotoxicity flag (confluency mask): cytotoxic (confluency <70% of control), agonist: Imiquimod (TLR7) […].
Where [8] appears, read: cytotoxicity flag (confluency mask): cytotoxic (confluency <70% of control), agonist: MPLA (TLR4) […].
[9] abbreviates: cytotoxicity flag (confluency mask): not cytotoxic, agonist: Imiquimod (TLR7) […].
Where [10] appears, read: cytotoxicity flag (confluency mask): not cytotoxic, agonist: MPLA (TLR4) […].

Consider 26 molecules from the supplement of paper PMC10037445.

Whole data set: some 2,900 compounds, median “NF-kB SEAP reporter activity, fold change vs agonist alone” near 0.99, cut for the highest 2% near 2.6. The list shows a part of the results.

Turning to `Cl.NCCCC(N)(C(=O)O)C(F)F.O` (stereo not drawn) (library stock concentration (final ~1000-fold dilution): 10 mM water), the “NF-kB SEAP reporter activity” value is 0.872 with RAW-Dual [1] (agonist: LPS (TLR4) 0.1 ug/mL), 1.08 in the assay with RAW-Dual [1] (setting [4]), 1.07 with RAW-Dual [1] (setting [5]) and 0.953 in the assay on RAW-Dual [1] (setting [6]).
On to `CNCCC=C1c2ccccc2CCc2ccccc21.Cl` (library stock concentration (final ~1000-fold dilution): 10 mM), for which the “NF-kB SEAP reporter activity” value in the assay with RAW-Dual [2] (agonist: LPS (TLR4) 0.1 ug/mL) is 1.44; in the assay with RAW-Dual [2] (setting [4]), 0.95; with RAW-Dual [2] (setting [5]), 0.632; in the assay on RAW-Dual [2] (setting [6]), 0.645.
As for `CNCCC=C1c2ccccc2CCc2ccccc21.Cl`, the figures for the “NF-kB SEAP reporter activity” value with RAW-Dual [3] (setting [7]) and with RAW-Dual [3] (setting [8]) were 1.94 and 1.7, respectively.
As to `Cc1nn(CC(F)(F)F)cc1Nc1ncc(Br)c(NCc2ccc(S(N)(=O)=O)cc2)n1`, the “NF-kB SEAP reporter activity” value in the assay on RAW-Dual [3] (setting [9]) amounted to 1.38; in the assay with RAW-Dual [3] (setting [10]) it was 1.33.
For `Cc1nn(CC(F)(F)F)cc1Nc1ncc(Br)c(NCc2ccc(S(N)(=O)=O)cc2)n1` (library stock concentration (final ~1000-fold dilution): 10 mM), the “NF-kB SEAP reporter activity” value in the assay on RAW-Dual [1] (agonist: LPS (TLR4) 0.1 ug/mL) worked out at 0.744; in the assay on RAW-Dual [1] (setting [4]) it was 1.28; with RAW-Dual [1] (setting [5]), 1.17; with RAW-Dual [1] (setting [6]), 1.54.
As for `Oc1cc(CNC(=S)/C=C/c2cc(O)c(O)c(Br)c2)cc(O)c1O` (library stock concentration (final ~1000-fold dilution): 10 mM), the “NF-kB SEAP reporter activity” value turned out to be 3.51 in the assay on RAW-Dual [1] (agonist: LPS (TLR4) 0.1 ug/mL) and 2.77 with RAW-Dual [1] (setting [4]).
`CC(C)(C)NCC(O)COc1nsnc1N1CCOCC1.O=C(O)/C=C\C(=O)O` (stereo not drawn): the “NF-kB SEAP reporter activity” value in the assay on RAW-Dual [3] (setting [9]) was 0.89; in the assay on RAW-Dual [3] (setting [10]) it was 0.998.
As to `CC(C)(C)NCC(O)COc1nsnc1N1CCOCC1.O=C(O)/C=C\C(=O)O` (stereo not drawn) (library stock concentration (final ~1000-fold dilution): 10 mM), the “NF-kB SEAP reporter activity” value in the assay with RAW-Dual [1] (agonist: LPS (TLR4) 0.1 ug/mL) stood at 1.25; with RAW-Dual [1] (setting [4]) it was 0.888; with RAW-Dual [1] (setting [5]), 1.26; with RAW-Dual [1] (setting [6]), 1.08.
As to `O=C(NC(NC(=S)Nc1ccc(F)c([N+](=O)[O-])c1)C(Cl)(Cl)Cl)C(c1ccccc1)c1ccccc1` (stereo not drawn) (library stock concentration (final ~1000-fold dilution): 10 mM), the “NF-kB SEAP reporter activity” value in the assay on RAW-Dual [2] (agonist: LPS (TLR4) 0.1 ug/mL) amounted to 0.182; with RAW-Dual [2] (setting [4]), 0.493; with RAW-Dual [2] (setting [5]), 0.146; with RAW-Dual [2] (setting [6]), 0.135.
On to `O=C(NC(NC(=S)Nc1ccc(F)c([N+](=O)[O-])c1)C(Cl)(Cl)Cl)C(c1ccccc1)c1ccccc1` (stereo not drawn), for which the “NF-kB SEAP reporter activity” value came to 0.707 in the assay on RAW-Dual [3] (setting [7]) and 0.521 with RAW-Dual [3] (setting [8]).
Regarding `COc1cc(OC)c(/C=C2/C(=O)Nc3ccccc32)c(OC)c1`, the “NF-kB SEAP reporter activity” value in the assay on RAW-Dual [3] (setting [9]) worked out at 1.62; in the assay on RAW-Dual [3] (setting [10]) it was 1.67.
As to `COc1cc(OC)c(/C=C2/C(=O)Nc3ccccc32)c(OC)c1` (library stock concentration (final ~1000-fold dilution): 10 mM), the “NF-kB SEAP reporter activity” value stood at 3.21 in the assay with RAW-Dual [1] (agonist: LPS (TLR4) 0.1 ug/mL), 2.56 with RAW-Dual [1] (setting [4]), 1.33 in the assay with RAW-Dual [1] (setting [5]) and 1.92 in the assay on RAW-Dual [1] (setting [6]).
Consider `COC1=C2CC(C)CC(OC)C(O)C(C)/C=C(\C)C(OC(N)=O)C(OC)/C=C/C=C(\C)C(=O)NC(=CC1=O)C2=O` (stereo not drawn) (library stock concentration (final ~1000-fold dilution): 10 mM), for which the “NF-kB SEAP reporter activity” value in the assay on RAW-Dual [2] (agonist: LPS (TLR4) 0.1 ug/mL) was found to be 0.227; with RAW-Dual [2] (setting [4]) it was 0.237; in the assay with RAW-Dual [2] (setting [5]), 0.13; in the assay with RAW-Dual [2] (setting [6]), 0.136.
On to `COC1=C2CC(C)CC(OC)C(O)C(C)/C=C(\C)C(OC(N)=O)C(OC)/C=C/C=C(\C)C(=O)NC(=CC1=O)C2=O` (stereo not drawn), for which the entries for the “NF-kB SEAP reporter activity” value in the assay on RAW-Dual [3] (setting [7]) and in the assay with RAW-Dual [3] (setting [8]) were 0.408 and 0.395, respectively.
Consider `CC1OC(OC2C(Oc3cc(O)c4c(c3)OC(c3ccc(O)cc3)CC4=O)OC(CO)C(O)C2O)C(O)C(O)C1O` (stereo not drawn) (library stock concentration (final ~1000-fold dilution): 10 mM), for which the “NF-kB SEAP reporter activity” value in the assay with RAW-Dual [1] (agonist: LPS (TLR4) 0.1 ug/mL) amounted to 0.935; in the assay on RAW-Dual [1] (setting [4]), 1.04; in the assay with RAW-Dual [1] (setting [5]), 1.17; in the assay on RAW-Dual [1] (setting [6]), 1.13.
As to `CC1OC(OC2C(Oc3cc(O)c4c(c3)OC(c3ccc(O)cc3)CC4=O)OC(CO)C(O)C2O)C(O)C(O)C1O` (stereo not drawn), the figures for the “NF-kB SEAP reporter activity” value in the assay on RAW-Dual [3] (setting [9]) and with RAW-Dual [3] (setting [10]) were 0.993 and 1.05, respectively.
The corresponding values for `Cn1cc(C2=C(c3ccc(Cl)cc3Cl)C(=O)NC2=O)c2ccccc21` are 1.58 and 1.99.
As to `Cn1cc(C2=C(c3ccc(Cl)cc3Cl)C(=O)NC2=O)c2ccccc21` (library stock concentration (final ~1000-fold dilution): 10 mM), the “NF-kB SEAP reporter activity” value in the assay with RAW-Dual [1] (agonist: LPS (TLR4) 0.1 ug/mL) came to 3.23; with RAW-Dual [1] (setting [4]) it was 2.04; with RAW-Dual [1] (setting [5]) it was 1.49; in the assay on RAW-Dual [1] (setting [6]), 2.34.
Regarding `O=C1Nc2cc(Br)ccc2/C1=C1/Nc2ccccc2/C1=N\O`, the “NF-kB SEAP reporter activity” value was found to be 1.24 in the assay on RAW-Dual [3] (setting [7]) and 0.94 with RAW-Dual [3] (setting [8]).
`O=C1Nc2cc(Br)ccc2/C1=C1/Nc2ccccc2/C1=N\O` (library stock concentration (final ~1000-fold dilution): 10 mM): the “NF-kB SEAP reporter activity” value in the assay with RAW-Dual [2] (agonist: LPS (TLR4) 0.1 ug/mL) worked out at 0.459; in the assay with RAW-Dual [2] (setting [4]), 1.39; in the assay with RAW-Dual [2] (setting [5]), 0.695; in the assay with RAW-Dual [2] (setting [6]), 0.239.
Regarding `Cc1ccc(-c2n[nH]c3c2C(c2cccc(O)c2)N(c2ccc(C(=O)O)cc2)C3=O)cc1` (stereo not drawn) (library stock concentration (final ~1000-fold dilution): 10 mM), the “NF-kB SEAP reporter activity” value was determined as 1.15 in the assay with RAW-Dual [1] (agonist: LPS (TLR4) 0.1 ug/mL), 0.926 in the assay on RAW-Dual [1] (setting [4]), 1.12 in the assay with RAW-Dual [1] (setting [5]) and 0.864 in the assay with RAW-Dual [1] (setting [6]).
`Cc1ccc(-c2n[nH]c3c2C(c2cccc(O)c2)N(c2ccc(C(=O)O)cc2)C3=O)cc1` (stereo not drawn): the “NF-kB SEAP reporter activity” value with RAW-Dual [3] (setting [9]) came to 0.889; in the assay on RAW-Dual [3] (setting [10]), 1.06.
As to `CCOc1ccc2ccccc2c1C(=O)NC1C(=O)N2C1SC(C)(C)C2C(=O)O` (stereo not drawn) (library stock concentration (final ~1000-fold dilution): 10 mM), the “NF-kB SEAP reporter activity” value was 1.19 in the assay with RAW-Dual [1] (agonist: LPS (TLR4) 0.1 ug/mL), 0.957 in the assay on RAW-Dual [1] (setting [4]), 1.15 in the assay with RAW-Dual [1] (setting [5]) and 0.975 in the assay on RAW-Dual [1] (setting [6]).
As for `CCOc1ccc2ccccc2c1C(=O)NC1C(=O)N2C1SC(C)(C)C2C(=O)O` (stereo not drawn), the “NF-kB SEAP reporter activity” value in the assay with RAW-Dual [3] (setting [9]) was determined as 0.912; with RAW-Dual [3] (setting [10]), 1.07.
For the molecule `O=C(N/N=C/c1ccc([N+](=O)[O-])o1)c1ccc(O)cc1` (library stock concentration (final ~1000-fold dilution): 10 mM), the “NF-kB SEAP reporter activity” value in the assay with RAW-Dual [2] (agonist: LPS (TLR4) 0.1 ug/mL) is 3.8; with RAW-Dual [2] (setting [4]) it was 1.64; in the assay on RAW-Dual [2] (setting [5]), 1.38; in the assay with RAW-Dual [2] (setting [6]) it was 1.55.
As for `O=C(N/N=C/c1ccc([N+](=O)[O-])o1)c1ccc(O)cc1`, the “NF-kB SEAP reporter activity” value with RAW-Dual [3] (setting [7]) stood at 2.58; in the assay with RAW-Dual [3] (setting [8]), 2.03.
